Laboratory results taken from PubChem BioAssay AID651820 (National Center for Advancing Translational Sciences (NCATS), 2012).
Hit rate of the full screen: of about 340,000 compounds, about 12,000 (3.5%) were called active. Inconclusive means that the source gave no clear call. Such entries were picked first, then a sample of the others. The call rests on the fitted dose curve; in most records, active means well fitted inhibition curve with a large enough effect; inconclusive means small, poorly fitted or top-dose-only effect, or another doubt; inactive means no such curve, though single readings can be large or run the other way. No potency is given beside an inconclusive call; the fits are too rough.

assay: qHTS Assay for Inhibitors of Hepatitis C Virus (HCV); settings: Huh7.5.1 HCVcc-Cre (HCVcc is cell-culture hepatitis C virus) infection, luciferase reporter, 44 h; activity change, negative = inhibition: at 41.8 µM (top of the series) unless noted
How it was run: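 HCVcc-Cre virus at an moi near 0.5 was added right after compound to cells cultured 4 h from seeding (1,000 cells/well). Luciferase activity was determined 44 h later, 15 min after substrate addition at RT.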
On the % scale 0 is the no-effect control and ±100 the full control effect; potency means the concentration at half of the fitted maximal effect; tags describe the fitted curve by direction and shape.

Row | Structure (SMILES) | Potency | activity change, negative = inhibition
1 | COC(=O)c1cc(=O)n(CCc2ccccc2F)c(=Nc2ccc(F)c(Cl)c2)s1 | active: 7.94 µM | –
2 | O=C(CCCc1nc(-c2ccccc2)no1)NC1CCCCC1 | inactive | –
3 | C=CCn1c(NCc2cc(C)ccc2O)nc2ccccc21 | inconclusive [inhibitor, partial curve] | –
4 | Clc1ccccc1CSC1=NCCN1 | inactive | –
5 | Cc1cccc(NC(=O)Cc2noc3ccccc23)c1C | inactive | –
6 | N=C(N)CCCOc1ccccc1-c1ccccc1 | inactive | –
7 | Cc1ccccc1C(=O)N1CCC2CC1c1cc(-c3ccc(F)cc3)ccc12 (stereo not drawn) | inconclusive [inhibitor, partial curve] | –
8 | Cc1cc(C)c2cc(C#N)c(SCC(=O)NCc3ccco3)nc2c1 | inconclusive [inhibitor, partial curve] | –
9 | Cc1ccccc1N(C(=O)c1ccccn1)C(C(=O)NCc1ccccc1)c1cccnc1 (stereo not drawn) | inactive | –
10 | CN(C)S(=O)(=O)c1cccc(NC(=O)c2ccc(N3CCOCC3)c([N+](=O)[O-])c2)c1 | inconclusive [inhibitor, partial curve] | –
11 | CCc1ccc(Nc2ncnc3nc[nH]c23)cc1 | inactive | –
12 | C/C(=C\C(=O)c1ccc(Cl)cc1Cl)N(C)C | inactive | –
13 | COCCCNc1nc(SCc2ccccc2)nc2sc3c(c12)CCC3 | inconclusive [inhibitor, partial curve] | –
14 | O=S(=O)(Nc1ccc(-c2ccc(NS(=O)(=O)c3ccccc3)cc2)cc1)c1ccccc1 | active: 3.16 µM | –
15 | COc1cc(CNCCCN2CCOCC2)cc(Cl)c1OCC(=O)NC(C)(C)C | inconclusive [inhibitor, partial curve] | –
16 | COc1c(S(=O)(=O)NCCCN2CCOCC2)ccc(Cl)c1Cl | inactive | –
17 | CCCc1nc2ccc(NC(=O)c3ccco3)cc2c(=O)n1Cc1ccc(Cl)cc1 | inactive | –
18 | Cc1cc(N=NC(=O)c2ccccc2)ccc1O | inactive | –
19 | COc1ccc2sc(N(CCCN(C)C)C(=O)c3ccc(S(=O)(=O)N4CCCC4)cc3)nc2c1 | inconclusive [inhibitor, single point] | –
20 | COCc1cc(Sc2ccc(OC)cc2)nc(-c2ccccc2)n1 | inconclusive [inhibitor, partial curve] | –
21 | CC(=O)c1cccc(NC(=O)CN(C)S(=O)(=O)c2ccc3c(c2)CCC(=O)N3)c1 | inactive | –
22 | C[C@@]12C(=O)N(c3ccc(Cl)cc3)C(=O)N1[C@@H]1c3ccccc3OC[C@@H]1[C@H]2c1ccccc1 | inconclusive [inhibitor, single point] | –
23 | CSc1ccc(/C=C/C(=O)c2ccc(NC(=O)Cc3ccccc3)cc2)cc1 | inconclusive [inhibitor, single point] | –
24 | C/C(=N\Nc1nc(C)cc(-c2ccccc2)n1)c1ccc(O)cc1 | active: 11.2 µM | –
25 | COc1ccc(NC(=O)Cc2ccccc2F)cc1S(=O)(=O)N1CCCCC1 | inconclusive [inhibitor, partial curve, poor fit] | –

Row | Structure (SMILES) | Potency | activity change, negative = inhibition
26 | COc1cc(NC(=O)c2cccc(C)c2)ccc1NC(=O)c1cc2ccccc2o1 | inconclusive [inhibitor, full curve, poor fit] | –
27 | CCOc1ccc(NC(=S)N2CCC(c3nc4ccccc4[nH]3)CC2)cc1 | inconclusive [inhibitor, single point] | –
28 | CN(C)C(=O)c1ccccc1-c1ccccc1 | inactive | –
29 | COCCn1c(=O)[nH]c2cc(C(=O)N3CCN(c4cccc(C)c4C)CC3)ccc2c1=O | inconclusive [inhibitor, single point] | –
30 | CCOC(=O)C1(Cc2cccc(OC)c2)CCN(Cc2ccc3c(c2)OCCO3)CC1 | inconclusive [inhibitor, single point] | –
31 | COc1ccc(NC(=S)NC(=O)/C=C/c2ccccc2)cc1 | inactive | –
32 | CCOc1ccc(CCNC(=O)c2nnn(CC(=O)Nc3ccc(C)cc3)c2N)cc1OCC | inactive | –
33 | O=C(Oc1c(Cl)cc(Cl)c2cccnc12)N1CCOCC1 | inactive | –
34 | CC(=O)n1cc(N(C(=O)CCl)c2ccc(Cl)cc2)c2ccccc21 | active: 3.55 µM | –
35 | O=C1Nc2cc(C(=O)NCCCN3CCOCC3)ccc2S/C1=C/c1cccc(Cl)c1 | inconclusive [inhibitor, partial curve, poor fit] | –
36 | CCn1c(NCc2ccccn2)nc2c1c(=O)n(C)c(=O)n2C | inactive | –
37 | O=C(c1ccccn1)N(Cc1ccco1)C1(C(=O)NC2CCCCC2)CCCCC1 | inconclusive [inhibitor, full curve] | –
38 | O=C(Nc1ccccc1)N1Cc2ccccc2-n2nncc2C1 | inconclusive [inhibitor, partial curve, poor fit] | –
39 | Cc1nc(NC(=O)COc2ccccc2)sc1C(=O)Nc1ccccc1 | inconclusive [inhibitor, partial curve] | –
40 | COc1ccccc1N1CCN(/N=C/C(Cl)=C/c2ccccc2)CC1 | inconclusive [inhibitor, partial curve] | –
41 | COc1ccc(C(C)=O)cc1CSc1nnc(Nc2ccc(C)cc2C)s1 | – | inconclusive: -43.8% [inhibitor]
42 | Cc1cccc2c1nc(-c1ccccc1)n1cnnc21 | inactive | –
43 | CCCOc1ccc(CNC(=O)C2CCN(C(=O)N3CCOc4ccccc43)CC2)cc1 | inconclusive [inhibitor, single point] | –
44 | COC(=O)C1=C(C)N(Cc2ccccc2)C(=NCc2ccc(OC)cc2)N[C@H]1c1ccccc1 | inconclusive [inhibitor, partial curve] | –
45 | O=C(NNC(=O)C1CC1)Nc1ccc(Cl)cc1 | inactive | –
46 | CCCn1nnc(NC(=O)/C=C/c2ccc(C(C)C)cc2)n1 | inconclusive [inhibitor, partial curve] | –
47 | COc1cc(C(=O)Nc2ccc(Cl)c([N+](=O)[O-])c2)cc(OC)c1OC | inconclusive [inhibitor, partial curve] | –
48 | Cc1ccc(/C=C/C(=O)Nc2cccc3cccnc23)o1 | inconclusive [inhibitor, partial curve] | –
49 | Brc1ccc(C2Nc3cccc4cccc(c34)N2)cc1 | inactive | –
50 | NS(=O)(=O)c1ccc(CCNc2nc(CN3CCOCC3)nc3sc4c(c23)CCC4)cc1 | inconclusive [inhibitor, single point] | –

Row | Structure (SMILES) | Potency | activity change, negative = inhibition
51 | COc1ccccc1N1CCN(C(=O)CCc2nnc3ccc(N4CCC(C)CC4)nn23)CC1 | inactive | –
52 | CCC(=O)N1CCc2cc(S(=O)(=O)CCC(=O)NCCc3ccccc3)ccc21 | inconclusive [inhibitor, single point] | –
53 | Cn1nc(C(=O)Nc2cccc(S(=O)(=O)N3CCOCC3)c2)c2ccccc2c1=O | inconclusive [inhibitor, partial curve] | –
54 | O=C(NCc1cccnc1)c1ccc(-c2ccc(Cl)cc2)o1 | inconclusive [inhibitor, single point] | –
55 | Cc1cc(CSc2nc(C)cc(=O)[nH]2)c2ncccc2c1 | inconclusive [inhibitor, full curve, poor fit] | –
56 | CCN1CCN(S(=O)(=O)c2ccc(Cl)c(C(=O)NC(C)c3ccccc3Cl)c2)CC1 (stereo not drawn) | inconclusive [inhibitor, single point] | –
57 | O=S(=O)(Nc1ccccc1F)c1cccc(NC(=S)NCCN2CCOCC2)c1 | inactive | –
58 | C[C@]12CC[C@H](O)CC1=C[C@H](O)C1C2CC[C@@]2(C)C1CC[C@@]2(O)C#Cc1ccc(CN)cc1 (stereo partly drawn) | inactive | –
59 | CC(=O)N1CCN(Cc2nc3cc(NC(=O)c4ccccc4C)ccc3n2C)CC1 | inactive | –
60 | CCOC(=O)c1ccc(N2C(=O)CC(N3CCC(Nc4ccc(F)cc4)CC3)C2=O)cc1 (stereo not drawn) | inactive | –
61 | COc1ccc2cc3cc(C(=O)N4CCN(C5CCCCC5)CC4)oc3nc2c1 | inactive | –
62 | C=C1C(C)C2C(Cc3ccccc3)NC(=O)C23OC(=O)/C=C/C(O)CCCC(C)C/C=C/C3C1O (stereo not drawn) | inconclusive [inhibitor, full curve, poor fit] | –
63 | O=C(NC1C/C=C\C(c2ccccc2)N(c2ccccc2)C(=O)C1)OCC1c2ccccc2-c2ccccc21 (stereo not drawn) | inconclusive [inhibitor, full curve, poor fit] | –
64 | Cc1ccc(NC(=O)COc2ccc(Cl)cc2Cl)cc1S(=O)(=O)N1CCOCC1 | inconclusive [inhibitor, full curve, poor fit] | –
65 | NC(=O)/C(=N\OC(=O)c1ccco1)c1nc(-c2ccc(Br)cc2)cs1 | inconclusive [inhibitor, full curve] | –
66 | CCN(CC)CC#CCC(C)(c1ccccc1)c1ccccc1 | inconclusive [inhibitor, single point] | –
67 | COCn1c(-c2cccc(Br)c2)nc2ccccc21 | inconclusive [inhibitor, single point] | –
68 | COc1cccc(N2CCN(CC(=O)NC3=Nc4ccccc4N=C(C)C3c3ccccc3)CC2)c1 (stereo not drawn) | – | inconclusive: -32.8% [inhibitor]
69 | N#CC1=C(N)Oc2cc(N)ccc2C1c1ccccc1Cl (stereo not drawn) | inconclusive [inhibitor, single point] | –
70 | Cc1cc(F)ccc1NCC(=O)Nc1ccccc1Br | inactive | –
71 | Cc1ccc(S(=O)(=O)N2CCN=C2SC(C)c2ccccc2)cc1 (stereo not drawn) | inconclusive [inhibitor, single point] | –
72 | Cc1ccc(/C=N/NC(=O)c2cc(C)oc2C)o1 | inactive | –
73 | Cc1nnc(NC(=O)CC(NC(=O)C(F)(F)F)c2ccccc2)s1 (stereo not drawn) | inactive | –
